Laboratory results taken from the supplement of paper PMC3334620.
Over roughly 33,000 sequences, “E-score (-0.5 to 0.5)” has its median near -0.013; the highest 2% begin near 0.3. Some of the results follow.

Biological target: T1, Msn1 (UniProt P22148)
T1 sequence: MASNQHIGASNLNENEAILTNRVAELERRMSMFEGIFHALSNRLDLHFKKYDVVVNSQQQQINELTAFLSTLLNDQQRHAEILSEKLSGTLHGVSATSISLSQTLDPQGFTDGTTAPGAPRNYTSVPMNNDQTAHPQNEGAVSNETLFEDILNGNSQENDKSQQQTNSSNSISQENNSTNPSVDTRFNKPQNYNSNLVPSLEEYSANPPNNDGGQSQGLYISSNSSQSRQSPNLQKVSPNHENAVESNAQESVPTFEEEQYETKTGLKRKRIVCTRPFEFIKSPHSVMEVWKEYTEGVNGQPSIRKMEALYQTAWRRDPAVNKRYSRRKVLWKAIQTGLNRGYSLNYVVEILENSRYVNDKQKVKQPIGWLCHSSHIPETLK
Assay: PBM E-score (8-mer binding enrichment) (E-score (-0.5 to 0.5)); higher = stronger / more preferred TF binding; most listed sequences are background and not binding sites
Details: protein concentration: 200 nM; construct: GST-full length
Method in brief: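 Detection of bound protein used fluorescent anti-GST, with scans normalised by masliner. The proteins were GST-tagged yeast transcription factors applied at about 100-200 nM to universal all-10-mer Agilent arrays made double-stranded by primer extension. Each ungapped eight-base word, pooled with its reverse complement, was scored with an E-score from the Universal PBM Analysis Suite.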

Sequence | PBM E-score
GTGATAGA | -0.00307
GCAATGAA | 0.0712
CTAACGGC | 0.0128
CGACGGGC | -0.139
CATTCGCG | 0.156
CAAGCATG | 0.0621
AATCGGGC | 0.188
CAATTCAA | 0.0737
ACCTTAAT | -0.0456
ATGACTCG | -0.0628
ACACGAGC | -0.0693
ATTTAAAT | 0.137
GGATTGCC | -0.153
ACAATCCA | 0.18
AACTTAGC | -0.0744
AGATAAAG | 0.0852
CAGCTGCC | -0.0571
AGTGTTTA | 0.0747
AGCCAAGA | -0.0586
CCCTTTGC | -0.0591
ATTTCGGC | 0.135
ACTTTGCC | 0.013
AGTGACGG | -0.0864
ATTGGACG | 0.211

Sequence | PBM E-score
GTATATAA | 0.177
AGAGAAAA | 0.0628
TCCGATCA | 0.213
GTCAGTGA | 0.0595
CACTACGG | -0.121
ACGACGGC | -0.0669
ACATATAT | 0.141
GGACTTAC | 0.273
ATGAGATA | 0.00206
CCGGTCCG | -0.0392
CCCGTCTC | -0.308
TCCGAGGA | 0.19
TCAATCCA | 0.0372
ATGGGTTG | -0.0641
CTAAGCAG | -0.134
GCACCCAA | -0.191
GTCATGTA | 0.0651
GCGATCAA | -0.0507
ACGAGCCT | -0.209
ACCAGCAA | 0.202
CTACCCTC | -0.219
AGCTAGAC | -0.0225
AGCGTATC | -0.146
CGTAGGCC | -0.109

Sequence | PBM E-score
GCCCTCGA | -0.175
GATTGGCA | -0.127
AAGCATAA | -0.0301
GATGCTAA | 0.111
ACTCCGGC | 0.176
ATCGTAGC | 0.0763
GACAACTA | 0.274
AGTGTGAA | -0.0122
AGCGTCCG | 0.0162
GAATGTTA | 0.0288
AAAGAGAC | 0.102
ATGCATCG | 0.0513
ACGGCGAC | -0.0453
AATTTAGG | 0.132
CCAGCAAC | 0.0523
CGGATTTA | 0.0815
AGACATAC | 0.327
AGAGGCAT | -0.0984
ATACAGTA | 0.192
CCGGGCAG | -0.12
CAGCCGCG | -0.0535
TATTTCCA | -0.0318
AAGCGTTG | -0.104
AGGAGAGC | -0.349

Sequence | PBM E-score
CTATAGCA | 0.0153
CGGAGCCC | -0.245
AGAAGACA | 0.101
ACTTGACC | 0.0395
ACCGTGAC | -0.169
CGTGGTAC | -0.0656
AAAAATGG | 0.311
TCCATACA | 0.155
GACACGTA | 0.277
GGCTCACA | -0.0634
AGCGTCTC | -0.165
AAGGACCG | -0.00955
CAGCGTAG | -0.113
CATGTCGG | 0.224
CTACTTAA | -0.0541
CATTCAAG | -0.031
CCTCCGTA | -0.147
AGTCCTAG | 0.277
GAGTATGC | -0.0467
CATCGAGC | -0.0382
CAGTCGTC | -0.0431
GAATGGCC | -0.205
